Assay results from PubChem BioAssay AID1918942 (Molecular Pharmacology Branch, DTP, NCI, 2023).
The source holds more than one record for some entries. This list holds those alone. The source may hold further records. The values listed for one entry repeat one measurement across runs, samples, wells, individuals or studies. Signs of the kind (2×) give the number of equal values in this list. A date in brackets names the month of the test.

Tested on: 743489-274-T-PDC complex spheroid viability
Assay: Anticancer human tumor 743489-274-T-PDC patient-derived renal cell carcinoma cell line growth inhibition
Conditions: stronger effect = lower value
From the text: Multicellular complex tumor spheroid response to LSD1 Inhibitor Iadademstat in combination with a variety of drugs and investigational agents in selected tumor cell lines
The current study was undertaken to assess response to LSD1 inhibitors in combination with standard-of-care drugs and investigational agents in solid tumor complex spheroid models as well as in the K-562 leukemia. Complex spheroids include a stromal component modeled by human endothelial cells (HUVEC) and fibroblasts modeled by human mesenchymal stem cells (MSCs). The concentration ranges selected for each drug and investigational agent were based upon clinically achievable concentrations if the clinical Cmax of the agent was known.
Compounds. The drugs and investigational agents used in this study are listed on Table 1. All of the agents used, including staurosporine (NSC755774) and gemcitabine (NSC613327), were obtained from the Developmental Therapeutics Program, NCI. FDA-approved anticancer drugs are available from the NCI at http://dtp.nci.nih.gov/branches/dscb/oncology_drugset_explanation.html. Drugs and investigational agents were >95% pure by proton nuclear magnetic resonance (NMR) and liquid chromatography/mass spectrometry (LC/MS). Stock solutions were prepared at 400x in DMSO, stored at -70 degrees C, and diluted in fresh medium prior to their use. The final concentration of DMSO in cell culture wells never exceeded 0.25% (v/v). The FDA-approved anticancer drug set is available from the Developmental Therapeutics Program at https://dtp.cancer.gov/organization/dscb/obtaining/available_plates.htm. All drugs and investigational agents were tested over a range starting from a high concentration at or near the clinical Cmax and decreasing in half-log increments. If the clinical Cmax for an agent had not been determined, the highest concentration tested was 10 microM.
Cell Lines. The patient-derived cancer cell (PDC) lines: 292921-168-R-J2-PDC, K24384-001-R-PDC, and 521955-158-R2-J5-PDC pancreatic carcinomas, 556581-035-R-J1 ovarian carcinoma, 324938-238-R-J1-PDC, 855422-203-R-J1-PDC and 883617-216-R-J1-PDC urothelial bladder carcinomas, 743489-274-T-PDC renal cell carcinoma, 138582-R-J1 Merkel cell tumor, K60290-347-R-J1 and K57222-313-R-J1-PDC glioblastomas, 653999-131-R-J2-PDC, LG0703-F948-PDC, and 349418-098-R-PDC non-small cell lung carcinomas, 885512-296-R-J2-PDC, 171881-019-R-J1-PDC breast carcinomas and 186277-243-T-J2-PDC and 233499-124-R-J2-PDC colon carcinomas were obtained from the NCI Patient-Derived Models Repository (PDMR, https://pdmr.cancer.gov). The established cell lines NCI/ADR-RES (RRID:CVCL_14520 and OVCAR-5 (RRID:CVCL_1628) ovarian carcinomas, 786-O (RRID:CVCL_1051) and A498 (RRID:CVCL_A498) renal cell carcinoma, NCI-H211 (ATCC, cat. CRL-5824; RRID:CVCL_1529), NCI-H196 (ATCC, cat. CRL-5823, RRID:CVCL_1509), SW 1271 (ATCC, cat. CRL-2177, RRID:CVCL_1716) and NCI-H1876 (ATCC, cat. CRL-5902, RRID:CVCL_1503) small cell lung carcinomas, MDA-MB-231 (RRID:CVCL_0062) and MDA-MB-468 (RRID:CVCL_0419)breast carcinomas (10-12). Pooled donor human umbilical vein endothelial cells (HUVEC, Lonza, cat. CC-2519) and human mesenchymal stem cells (hMSC, Lonza, cat. PT-2501) were purchased from Lonza (Walkersville, MD).
Cell Culture. All cells were maintained in an incubator at 37 degrees C and 5% CO2 with 95% humidity. The PDC lines were cultured according to standard operating procedures established by the NCI PDMR (https://pdmr.cancer.gov). Briefly all PDCs were thawed and cultured in Matrigel-coated flasks prepared with a working solution of 1X Ham's F-12 nutrient mix, without supplementation (Invitrogen, Waltham, MA, cat. 11765054), 100 U/mL penicillin-streptomycin (Invitrogen, cat. 15140122), and 2.5% Matrigel (Corning Inc., Corning, NY, cat. 354248) for the first three passages. […]
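Note: spheroids exposed to compounds for 7 days before readout; 100% = DMSO vehicle control wells.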

Row | SMILES | viability, T/C (compound alone 10 µM) | viability, T/C (compound alone 0.1 µM) | viability, T/C (compound alone 1 µM) | viability, T/C (compound alone 3.16 µM)
1 | CC(C)c1c(-c2ccccc2)nc2c(C#N)c[nH]n2c1=O | 77.2% [2021-11] and 113% [2021-12] |  |  | 
2 | NC1CCC(NC2CC2c2ccccc2)CC1 (stereo not drawn) | 112, 110, 113 (2×), 102, 128, 101, 126, 99.6, 95.4, 107 (3×), 100, 82.2, 90, 122 (2×), 95, 95.2, 118, 97, 106% | 96.1, 102 (4×), 97.1, 105, 107 (3×), 112 (2×), 110, 96.2, 99.1, 104, 111, 99.7, 99.9, 77.3, 103, 94.1, 94.8, 120, 106% | 122, 118, 114 (2×), 111 (3×), 120 (2×), 109 (2×), 86.1, 128 (2×), 116, 101, 90.6, 106, 119, 110 (2×), 97.1, 94, 105, 112% | 110, 106, 105 (3×), 122, 114 (2×), 109 (2×), 112 (3×), 104 (2×), 99.4, 115, 91.5, 103, 111, 117, 98.8, 101, 98.9, 121%
3 | NC1CC1c1ccc(-c2cccc(O)c2)cc1 (stereo not drawn) | 97.8, 114, 86.3, 89.1, 86.5, 100 (2×), 99.4, 97.9, 109 (2×), 93.7, 98.2, 105 (2×), 102, 88.6, 98, 101 (2×), 64.8, 103, 89, 92, 92.9% |  | 109, 102 (3×), 99.9, 92.8 (2×), 106, 87.4, 91.7, 99.8, 96.4, 96.2, 101, 110, 88, 90.1, 98.8, 116, 91.9, 95 (2×), 104, 89.1, 105% | 90.4, 95.6, 102 (2×), 89.5, 97.9, 86.4, 94.7, 106, 110 (2×), 92.4, 104, 98.2, 107, 87.4, 90.7, 103 (2×), 109, 93.1, 97.1, 98.3, 96.4, 112%
